Results published in PubChem BioAssay AID686979 (National Center for Advancing Translational Sciences (NCATS), 2013).
Out of some 420,000 compounds screened, about 50,000 (12%) were called active. The shares of active, inactive and inconclusive entries below differ from those in the screen. Calls follow the shape of the dose curve; as a rule, active = well fitted inhibition curve with a large enough effect; inconclusive = small, poorly fitted or top-dose-only effect; inactive = flat fitted curve, though single readings scatter. Potencies of inconclusive entries are left out as doubtful fits.

Assay: qHTS for Inhibitors of human tyrosyl-DNA phosphodiesterase 1 (TDP1): qHTS in cells in presence of CPT; also: nearly all actives have a fitted effect of over 55% in size
Conditions: chicken DT40 Tdp1-/-;hTDP1 cells + 20 nM CPT, ATP luminescence, 48 h; activity change, negative = growth inhibition: at 46.2 µM (top of the series)
Method in brief: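 Chicken DT40 Tdp1-/- cells complemented with human TDP1, 400 cells/well, exposed to compounds plus 20 nM camptothecin for at least 48 h at 37 C; viability read as ATP content by CellTiter-Glo luminescence.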
% is scaled to controls: 0 for no effect and ±100 for the full control effect; potency is read from the fitted curve at half-maximal effect; tags tell the direction and shape of the fitted curve.

SMILES	Potency	activity change, negative = growth inhibition
CCOC(=O)C1=CC[C@@H](c2ccc(OC)cc2)N(S(=O)(=O)c2ccc(C)cc2)[C@H]1CC	active: 14.6 µM	–
CC(=O)CCc1oc2ccc(C)cc2c1-c1ccc(C)o1	active: 11.6 µM	–
OC(c1ccccn1)(c1ccccn1)c1ccccn1	inconclusive [inhibitor, partial curve]	–
COCc1cc(S(=O)c2ccc(Cl)cc2)nc(C)n1 (stereo not given)	active: 4.61 µM	–
Cc1ccc(NC(=O)Cn2c(=O)n(CCCC(=O)NCc3ccc4c(c3)OCO4)c(=O)c3ccccc32)cc1	inconclusive [inhibitor, partial curve]	–
COCCN(C(=O)c1cc(S(=O)(=O)N2CCCCC2)ccc1Cl)c1c(N)n(CC(C)C)c(=O)[nH]c1=O	inactive	–
Cc1nc(C)c(-c2ccnc(/N=C/NO)n2)s1	inactive	–
Cc1nc(NC2=NCN(CCCN3CCOCC3)CN2)nc2c(C)cccc12	inconclusive [inhibitor, partial curve]	–
Cc1cc(C)c2c(-n3cccc3)c(NC(=O)OC(C)C)sc2n1	active: 18.4 µM	–
N#CC1=C(N)C(C#N)(C#N)[C@H](c2ccsc2)[C@H]2COCC=C12	inconclusive [inhibitor, partial curve]	–
C/C(=N\NC(=O)c1ccc(Cl)c(S(=O)(=O)Nc2ccccc2Cl)c1)c1ccncc1	inconclusive [inhibitor, single point]	–
O=C1CCC([N+](=O)[O-])C(c2ccc3c(c2)OCO3)N1 (stereo not given)	inactive	–
C=C1CCC[C@]2(C)C[C@H]3OC(=O)C(CNC(C)CC)[C@H]3CC12 (stereo not given in full)	inconclusive [inhibitor, single point]	–
COc1ccccc1C#Cc1ccc2c(=O)c3ccccc3n(C)c2c1	inconclusive [inhibitor, partial curve, poor fit]	–
Cc1ccc(NC(=O)C2CCN(S(=O)(=O)c3ccc4ccccc4c3)CC2)nc1	inactive	–
COc1cc(O)cc(OC)c1OC	inconclusive [inhibitor, partial curve, poor fit]	–
CCC(C)NC(=O)C1CCN(S(=O)(=O)c2ccc(-n3cnnn3)cc2)CC1 (stereo not given)	inactive	–
Cc1cc2oc(C(=O)N3CCN(Cc4ccccc4)CC3)c(C)c2cc1C	active: 25.9 µM	–
COc1ccc(C(=O)NCC2CCCN2S(=O)(=O)c2cccs2)cc1 (stereo not given)	inactive	–
CC[C@@]1(C(=O)OC)N[C@H](CN(C)S(=O)(=O)c2ccc(C(C)(C)C)cc2)[C@@H]2C(=O)N(Cc3ccccc3)C(=O)[C@@H]21	–	inconclusive: -16.2% [inhibitor]
COc1cc(/C=N/Nc2nc3ccccc3o2)cc(OC)c1O	–	inconclusive: -36.5% [inhibitor]
OC(CNCc1ccccc1)(c1ccc(F)cc1)c1ccc(F)cc1	inconclusive [inhibitor, single point]	–
O=c1c2ccccc2c2ccccc2c(=O)n1Cc1ccc2c(c1)OCO2	inconclusive [inhibitor, single point]	–

SMILES	Potency	activity change, negative = growth inhibition
CCOC(=O)[C@]12CCCC=C1N(Cc1ccc3c(c1)OCO3)C(=O)[C@H](CC(=O)N1CCCC1)C2	inconclusive [inhibitor, single point]	–
CCNS(=O)(=O)c1cc(-c2nnc(Nc3cccc(C(F)(F)F)c3)c3ccccc23)ccc1C	active: 5.8 µM	–
COc1cc(NC(=O)c2c(F)c(F)c(OC)c(F)c2F)ccc1NC(=O)c1cccs1	active: 20.6 µM	–
CN(C)S(=O)(=O)c1ccc(S(=O)(=O)NCc2ccc3c(c2)OCO3)cc1	inactive	–
CC(C)(C)c1ccc(NC(=S)NCCc2ccccn2)cc1	inconclusive [inhibitor, single point]	–
O=C(CCN1C(=O)/C(=C/c2ccc(F)cc2)SC1=S)NNC(=O)c1cccnc1	inconclusive [inhibitor, single point]	–
COc1ccc(N(CC(=O)NCc2ccc(Cl)cc2)S(=O)(=O)c2c(C)nn(C)c2C)cc1	inconclusive [inhibitor, single point]	–
COc1ccc(/C=C/C(=O)OCC(=O)Nc2cc(C(N)=O)cc(C(N)=O)c2)cc1	inactive	–
O=C(CCN1C(=O)c2ccncc2C1=O)Nc1cc(F)ccc1F	inactive	–
Nn1c(SCC(=O)Nc2c(Cl)cccc2Cl)nncc1=O	inactive	–
C[C@H](CO)N1C[C@H](C)[C@@H](CN(C)Cc2ccc(Oc3ccccc3)cc2)OCc2cnnn2CCCC1=O	inactive	–
COc1ccc(OC)c2c1sc(=NC(=O)c1ccco1)n2C	inconclusive [inhibitor, single point]	–
COc1cccc(Nc2nc(N)c([N+](=O)[O-])c(N3CCOCC3)n2)c1	inconclusive [inhibitor, single point]	–
CSc1nc2ccc3nc(NC(=O)C4COc5ccccc5O4)sc3c2s1 (stereo not given)	inconclusive [inhibitor, single point]	–
CC(=O)N1CC=C2C(C#N)=C(N)C(C#N)(C#N)C(CCc3ccccc3)C2C1 (stereo not given)	inconclusive [inhibitor, partial curve]	–
CC(CC(O)C1OC1(C)C)C1CCC2(C)C3=CCC4C(C)(C)C(=O)CCC4(C)C3CC[C@@]12C (stereo not given in full)	active: 5.17 µM	–
CCc1cccc(CC)c1N(COC)C(=O)Cn1c(CC)nc2ccccc21	inactive	–
COc1ccc(NC(=O)Nc2cc(C(=O)O)ccc2N2CC3CC(C2)c2cccc(=O)n2C3)c(OC)c1 (stereo not given)	inactive	–
CCOC(=O)Nc1cccc(NC(=O)c2cc(OC)cc(OC)c2)c1	inconclusive [inhibitor, partial curve, poor fit]	–
CCc1ccc2nc(N3CCN(C(=O)c4ccccc4)CC3)sc2c1	inconclusive [inhibitor, single point]	–
COCCNC(=O)c1cc2c(-c3ccc(Cl)cc3)nn(C)c2s1	inconclusive [inhibitor, single point]	–
O=C(CN(Cc1ccccc1)S(=O)(=O)c1ccccc1)N/N=C/c1ccccc1[N+](=O)[O-]	inconclusive [inhibitor, single point]	–
